According to the supplement of paper PMC4967469:
pIC50: −log10 of the molar value. Lines with a small IC50 respond at low doses; where the fit passes the top or lowest dose, that dose stands as a limit. For AUC the same curve is integrated over the 256-fold range of doses and scaled to a fraction; the more sensitive the line, the further below 1. For some assays here: Any top dose called inferred was derived from the fitted curves, not read from the paper. For some assays here: Where an entry number is given, a second screen of the drug exists; the two often differ.

Key:
Assay in all cases: Viability of human cancer cell lines after 72 h of drug (GDSC screen)
Gemcitabine = compound: Nc1ccn([C@@H]2O[C@H](CO)[C@@H](O)C2(F)F)c(=O)n1 [Gemcitabine]; conditions: top dose 1.024 µM
Method: (§1)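 Human cancer cell lines in 384-well plates, medium with 10% serum, drug for 72 h over a 256-fold dose range (nine 2-fold or five 4-fold steps up to the top dose). Adherent lines were fixed and stained with the nucleic acid dye Syto60, suspension lines read with resazurin; signal relative to control wells, capped at 0 and 100%. One two-parameter sigmoid per drug and line, fitted in a mixed model over all curves with the slope shared within a line.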

GNF-2 = compound: NC(=O)c1cccc(-c2cc(Nc3ccc(OC(F)(F)F)cc3)ncn2)c1 [GNF-2]; conditions: top dose 1.28 µM; top dose inferred
Method: as §1

Nilotinib = compound: Cc1cn(-c2cc(NC(=O)c3ccc(C)c(Nc4nccc(-c5cccnc5)n4)c3)cc(C(F)(F)F)c2)cn1 [Nilotinib]; conditions: top dose 2 µM
Method: as §1

LFM-A13 = compound: C/C(O)=C(\C#N)C(=O)Nc1cc(Br)ccc1Br [LFM-A13]; conditions: top dose 16 µM; top dose inferred
Method: as §1

AUY922 = compound: CCNC(=O)c1noc(-c2cc(C(C)C)c(O)cc2O)c1-c1ccc(CN2CCOCC2)cc1 [AUY922]; conditions: top dose 0.256 µM; top dose inferred
Method: as §1

Bicalutamide = compound: CC(O)(CS(=O)(=O)c1ccc(F)cc1)C(=O)Nc1ccc(C#N)c(C(F)(F)F)c1 [Bicalutamide]; conditions: top dose inferred
Method: as §1

TW-37 = compound: CC(C)c1ccccc1Cc1cc(C(=O)Nc2ccc(S(=O)(=O)c3ccccc3C(C)(C)C)cc2)c(O)c(O)c1O [TW-37]; conditions: top dose 5 µM
Method: as §1

MP470 = compound: S=C(NCc1ccc2c(c1)OCO2)N1CCN(c2ncnc3c2oc2ccccc23)CC1 [MP470]; conditions: top dose 20 µM; top dose inferred
Method: as §1

KIN001-270 = compound: Cc1ccc(Nc2cc(-c3cccc(N4C(=O)c5ccccc5C4=O)c3)ncn2)cc1NS(C)(=O)=O [KIN001-270]; conditions: top dose 20 µM; top dose inferred
Method: as §1

T0901317 = compound: O=S(=O)(c1ccccc1)N(CC(F)(F)F)c1ccc(C(O)(C(F)(F)F)C(F)(F)F)cc1 [T0901317]; conditions: top dose 10.24 µM; top dose inferred
Method: as §1

[1] = top dose 1.024 µM, screen: GDSC drug entry 150
[2] = top dose 10 µM, screen: GDSC drug entry 1502

Cell Line | AUC (Gemcitabine) | pIC50 (Gemcitabine) | AUC (GNF-2) | pIC50 (GNF-2) | AUC (Nilotinib) | pIC50 (Nilotinib) | AUC (LFM-A13) | pIC50 (LFM-A13) | AUC (AUY922) | pIC50 (AUY922) | AUC (Bicalutamide; [1]) | pIC50 (Bicalutamide; [1]) | AUC (Bicalutamide; [2]) | pIC50 (Bicalutamide; [2]) | AUC (TW-37) | pIC50 (TW-37) | AUC (MP470) | pIC50 (MP470) | AUC (KIN001-270) | pIC50 (KIN001-270) | AUC (T0901317) | pIC50 (T0901317)
COR-L88 (small cell lung carcinoma, adherent) | 0.906 | < 5.99 | 0.984 | < 5.89 | 0.96 | < 5.70 | 0.905 | < 4.80 | 0.808 | 6.79 | 0.984 | < 5.99 | 0.978 | < 5.00 | 0.718 | 5.83 | 0.719 | 5.22 | 0.975 | < 4.70 | 0.974 | < 4.99
COR-L95 (small cell lung carcinoma, adherent) | 0.899 | < 5.99 | 0.986 | < 5.89 | 0.987 | < 5.70 | 0.982 | < 4.80 | 0.803 | 6.82 | 0.985 | < 5.99 | 0.985 | < 5.00 | 0.829 | 5.42 | 0.864 | < 4.70 | 0.981 | < 4.70 | 0.987 | < 4.99
COR-L279 (small cell lung carcinoma, suspension) | 0.471 | – | 0.973 | < 5.89 | 0.991 | < 5.70 | 0.966 | < 4.80 | 0.823 | 6.89 | 0.991 | < 5.99 | 0.971 | < 5.00 | 0.903 | < 5.30 | 0.791 | 5.10 | 0.979 | < 4.70 | 0.978 | < 4.99
CP66-MEL (melanoma, adherent) | 0.982 | < 5.99 | 0.986 | < 5.89 | 0.986 | < 5.70 | 0.955 | < 4.80 | 0.694 | 7.21 | 0.982 | < 5.99 | 0.983 | < 5.00 | 0.724 | 5.82 | 0.932 | < 4.70 | 0.981 | < 4.70 | 0.978 | < 4.99
CPC-N (small cell lung carcinoma, suspension) | 0.576 | 6.98 | 0.966 | < 5.89 | 0.857 | 5.73 | 0.941 | < 4.80 | 0.98 | < 6.59 | 0.985 | < 5.99 | 0.957 | < 5.00 | 0.485 | 6.55 | 0.876 | < 4.70 | 0.981 | < 4.70 | 0.961 | < 4.99
CTB-1 (B-cell lymphoma, suspension) | 0.445 | 7.37 | 0.978 | < 5.89 | 0.945 | < 5.70 | 0.97 | < 4.80 | 0.627 | 7.39 | 0.967 | < 5.99 | 0.947 | < 5.00 | 0.474 | 6.59 | 0.445 | 6.08 | 0.979 | < 4.70 | 0.779 | 5.23
